Results from the supplement of paper PMC6089552.
Hit rate of the full screen: of about 3,200 compounds, about 300 (9.4%) showed activity. The list shows a part of the results, in another mix than the full data.

Test system: A673/TR/shEF
Test: cell viability (LOESS-normalised, relative to median of negative controls) (log2 ratio); higher = more viable cells (less compound effect), active = hit call of the paper (over 3 MAD below the median)
Details: treatment time: 72 h
In short: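 Doxycycline, present or absent from 24 h before compounds, was used to induce EWS-FLI1 shRNA knockdown in A673/TR/shEF Ewing sarcoma cells at 1,500 per well in 384-well plates. Cells then received library compounds at two or more concentrations, or DMSO controls, for three days. Viability was measured by CellTiter-Glo luminescence on an Envision reader, and per-plate LOESS correction, division by the negative-control median and log2 transformation followed.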

[1] = 0.25 µM, library screen: screen1, EWS-FLI1 expression: high (no doxycycline)
[2] = 0.25 µM, library screen: screen1, EWS-FLI1 expression: low (doxycycline-induced shRNA knockdown)
[3] = 2.5 µM, library screen: screen1, EWS-FLI1 expression: high (no doxycycline)
[4] = 2.5 µM, library screen: screen1, EWS-FLI1 expression: low (doxycycline-induced shRNA knockdown)
[5] = 0.25 µM, library screen: screen2, EWS-FLI1 expression: high (no doxycycline)
[6] = 0.25 µM, library screen: screen2, EWS-FLI1 expression: low (doxycycline-induced shRNA knockdown)
[7] = 2.5 µM, library screen: screen2, EWS-FLI1 expression: high (no doxycycline)
[8] = 2.5 µM, library screen: screen2, EWS-FLI1 expression: low (doxycycline-induced shRNA knockdown)
[9] = 0.103 µM, library screen: screen3, EWS-FLI1 expression: high (no doxycycline)
[10] = 0.103 µM, library screen: screen3, EWS-FLI1 expression: low (doxycycline-induced shRNA knockdown)
[11] = 0.308 µM, library screen: screen3, EWS-FLI1 expression: high (no doxycycline)
[12] = 0.308 µM, library screen: screen3, EWS-FLI1 expression: low (doxycycline-induced shRNA knockdown)
[13] = 0.926 µM, library screen: screen3, EWS-FLI1 expression: high (no doxycycline)
[14] = 0.926 µM, library screen: screen3, EWS-FLI1 expression: low (doxycycline-induced shRNA knockdown)
[15] = 2.8 µM, library screen: screen3, EWS-FLI1 expression: high (no doxycycline)
[16] = 2.8 µM, library screen: screen3, EWS-FLI1 expression: low (doxycycline-induced shRNA knockdown)
[17] = 8.3 µM, library screen: screen3, EWS-FLI1 expression: high (no doxycycline)
[18] = 8.3 µM, library screen: screen3, EWS-FLI1 expression: low (doxycycline-induced shRNA knockdown)
[19] = 25 µM, library screen: screen3, EWS-FLI1 expression: high (no doxycycline)
[20] = 25 µM, library screen: screen3, EWS-FLI1 expression: low (doxycycline-induced shRNA knockdown)

Measured: cell viability (log2)

CC(C)CCC[C@@H](C)[C@H]1CC[C@H]2[C@@H]3CC=C4C[C@@H](O)CC[C@]4(C)[C@H]3CC[C@]12C
inactive: [1] 0.151 | [2] 0.0665 | [3] 0.269 | [4] 0.267

CCCCCC1C(=O)CCC1CC(=O)O (centres undefined)
inactive: [1] 0.0024 | [2] -0.00904 | [3] 0.144 | [4] 0.0215

C[N+](C)(C)CCOP(=O)([O-])OP(=O)(O)OC[C@H]1O[C@@H](n2ccc(N)nc2=O)[C@H](O)[C@@H]1O
inactive: [5] 0.0983 | [6] 0.0319 | [7] 0.095 | [8] 0.0926

CN(C)CCC(c1ccccc1)c1ccccn1 (centres undefined)
inactive: [1] 0.0471 | [2] 0.119 | [3] 0.0893 | [4] 0.201

N=C(N=C(N)N)N1CCOCC1
inactive: [9] -0.021 | [10] 0.109 | [1] 0.0942 | [2] -0.0417 | [11] 0.127 | [12] 0.0816 | [13] 0.0691 | [14] 0.0387 | [3] 0.154 | [4] 0.0743 | [15] 0.107 | [16] 0.065 | [17] 0.132 | [18] 0.0337 | [19] 0.206 | [20] 0.0326

CCOc1cccc(=O)c2c(C)[nH]c(C)c12
inactive: [1] 0.0528 | [2] 0.134 | [3] 0.0744 | [4] 0.088

CC(=O)OCC(=O)[C@@]12OC3(CCCC3)O[C@@H]1C[C@H]1[C@@H]3CCC4=CC(=O)C=C[C@]4(C)[C@@]3(F)[C@@H](O)C[C@@]12C
inactive: [1] 0.0908 | [2] -0.224 | [3] 0.0907 | [4] -0.41

COc1cc2c(cc1OC)Cc1cc(OC)c(OC)cc1Cc1cc(OC)c(OC)cc1C2
inactive: [1] 0.0474 | [2] -0.00812 | [3] 0.0387 | [4] -0.0322

N[C@@H](CC(=O)N1CCn2c(nnc2C(F)(F)F)C1)Cc1cc(F)c(F)cc1F
inactive: [9] -0.0148 | [10] 0.000746 | [11] 0.0564 | [12] -0.0121 | [13] -0.00306 | [14] 0.0567 | [15] -0.0309 | [16] 0.0592 | [17] 0.0707 | [18] 0.0678 | [19] 0.0606 | [20] 0.0133

C[C@@H]1O[C@@H](O[C@H]2[C@H](Oc3cc(O)c4c(c3)O[C@H](c3ccc(O)cc3)CC4=O)O[C@H](CO)[C@@H](O)[C@@H]2O)[C@H](O)[C@H](O)[C@H]1O
inactive: [1] 0.0898 | [2] 0.112 | [3] 0.163 | [4] 0.0667

Cn1cc(C2=C(c3cn(CCCSC(=N)N)c4ccccc34)C(=O)NC2=O)c2ccccc21
active: [3] -1.27 | [4] -0.615 | 25 µM, library screen: screen1, EWS-FLI1 expression: high (no doxycycline) -4.25 | 25 µM, library screen: screen1, EWS-FLI1 expression: low (doxycycline-induced shRNA knockdown) -2.05
inactive: 0.025 µM, library screen: screen1, EWS-FLI1 expression: high (no doxycycline) 0.0502 | 0.025 µM, library screen: screen1, EWS-FLI1 expression: low (doxycycline-induced shRNA knockdown) 0.0613 | [1] -0.0731 | [2] 0.0259

COc1c(O)cc(O)cc1O
inactive: [1] 0.0746 | [2] 0.0275 | [3] 0.127 | [4] 0.0739

C[C@@H]1O[C@@H](OC[C@H]2O[C@@H](Oc3c(-c4ccc(O)c(O)c4)oc4cc(O)cc(O)c4c3=O)[C@H](O)[C@@H](O)[C@@H]2O)[C@H](O)[C@H](O)[C@H]1O
inactive: [1] 0.159 | [2] 0.0843 | [3] 0.198 | [4] 0.157

C[N+](C)(C)CCC(=O)c1cccc2ccccc12
active: [5] -0.0772 | [7] -0.524

CCCC(=O)Nc1ccc(OCC(O)CNC(C)C)c(C(C)=O)c1 (centres undefined)
inactive: [1] 0.193 | [2] 0.113 | [3] 0.223 | [4] 0.0993

CC(=O)Nc1ccc(OCC(O)CNC(C)C)cc1 (centres undefined)
inactive: [1] 0.0899 | [2] 0.029 | [3] 0.178 | [4] 0.0479

CCCc1nc2c(C)cc(-c3nc4ccccc4n3C)cc2n1Cc1ccc(-c2ccccc2C(=O)O)cc1
inactive: [9] 0.0602 | [10] 0.0241 | [11] 0.0666 | [12] 0.066 | [13] 0.0685 | [14] 0.0882 | [15] 0.0743 | [16] 0.102 | [17] 0.0605 | [18] 0.0251 | [19] 0.0281 | [20] 0.117

O=C(O)Cc1ccc(O)c(O)c1
inactive: [5] 0.133 | [6] -0.00472 | [7] 0.0419 | [8] 0.108

COCCCOc1cc(C[C@@H](C[C@H](N)[C@@H](O)C[C@H](C(=O)NCC(C)(C)C(N)=O)C(C)C)C(C)C)ccc1OC
inactive: [9] 0.0214 | [10] 0.0985 | [11] -0.0178 | [12] -0.0075 | [13] -0.0678 | [14] 0.0322 | [15] 0.038 | [16] 0.0311 | [17] -0.0195 | [18] 0.0975 | [19] 0.0665 | [20] -0.0124
